Test results as given in paper PMC4336329 (PLoS ONE, 2015).
The whole screen tested about 310,000 compounds, of which about 2,200 (0.71%) showed an effect of 50% or more. Effects have a minus sign here. The list shows a part of the results.

Biological target: human ether-à-go-go-related gene (hERG) potassium channel (human, UniProt Q12809)
Assay: primary screen, population patch clamp on CHO cells stably expressing hERG

Chain of human ether-à-go-go-related gene (hERG) potassium channel (Q12809 whole entry, looked up): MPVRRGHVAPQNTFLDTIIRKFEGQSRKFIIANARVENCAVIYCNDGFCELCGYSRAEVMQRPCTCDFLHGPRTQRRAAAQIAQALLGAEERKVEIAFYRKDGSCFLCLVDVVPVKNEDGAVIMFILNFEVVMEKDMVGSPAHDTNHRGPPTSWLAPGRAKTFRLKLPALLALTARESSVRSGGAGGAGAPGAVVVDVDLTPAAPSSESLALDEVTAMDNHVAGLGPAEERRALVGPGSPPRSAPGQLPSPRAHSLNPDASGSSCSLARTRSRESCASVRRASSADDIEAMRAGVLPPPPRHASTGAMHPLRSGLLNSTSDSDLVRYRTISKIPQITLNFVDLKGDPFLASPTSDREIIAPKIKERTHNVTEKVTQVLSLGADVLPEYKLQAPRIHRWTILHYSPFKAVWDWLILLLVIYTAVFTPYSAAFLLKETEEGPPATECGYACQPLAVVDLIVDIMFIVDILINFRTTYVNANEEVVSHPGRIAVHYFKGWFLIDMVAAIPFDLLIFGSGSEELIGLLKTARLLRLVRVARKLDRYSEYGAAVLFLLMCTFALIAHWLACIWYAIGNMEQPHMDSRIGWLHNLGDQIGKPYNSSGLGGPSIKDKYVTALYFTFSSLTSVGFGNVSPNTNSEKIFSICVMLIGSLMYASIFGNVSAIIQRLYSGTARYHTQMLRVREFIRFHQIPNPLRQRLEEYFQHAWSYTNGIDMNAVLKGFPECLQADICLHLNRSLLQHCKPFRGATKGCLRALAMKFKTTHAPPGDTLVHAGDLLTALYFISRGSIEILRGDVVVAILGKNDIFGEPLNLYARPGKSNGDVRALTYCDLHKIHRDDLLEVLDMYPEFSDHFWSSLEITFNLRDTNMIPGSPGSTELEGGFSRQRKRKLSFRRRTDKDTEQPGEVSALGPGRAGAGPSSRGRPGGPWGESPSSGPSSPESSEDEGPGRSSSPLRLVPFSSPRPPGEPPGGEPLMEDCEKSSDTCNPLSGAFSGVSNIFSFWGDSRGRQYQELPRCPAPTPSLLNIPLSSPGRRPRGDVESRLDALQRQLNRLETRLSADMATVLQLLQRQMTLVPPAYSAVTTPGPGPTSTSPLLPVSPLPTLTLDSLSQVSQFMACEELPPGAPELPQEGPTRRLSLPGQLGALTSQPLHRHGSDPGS

Row | Structure (SMILES) | hERG current change (%, negative = inhibition) at 1uM [%]
1 | CC1Cc2ccccc2N1C(=O)CSc1nc(-c2ccccc2)cs1 (centres unmarked) | 11.8
2 | COc1ccc(N2CS(=O)(=O)/C(=C/N(C)C)C2=O)cc1 | -1.63
3 | Cc1ccc(-c2[nH]nc3c2C(c2ccsc2)C(C#N)=C(N)O3)cc1 (centres unmarked) | -12.5
4 | O=C(O)CSC1=NC(=Nc2ccc(Cl)cc2)C2(CCCCC2)N1c1cccc(C(=O)O)c1 | 6.13
5 | Cc1ccc(C)c(NC(=O)COC(=O)c2ccc(S(=O)(=O)N3CCCCC3)cc2)c1 | -1.78
6 | O=C(CCN1CCCO1)N1CCCC(N2CCN(c3ccccc3F)CC2)C1 (centres unmarked) | 11.7
7 | C=CCn1c(SCc2nc3ccccc3c(=O)[nH]2)nnc1-c1cc2cc(Cl)ccc2o1 | 5.73
8 | C=CCNC(=O)c1cc(Cl)ccn1 | 8.34
9 | Cc1cc(=O)[nH]c(-c2ccccc2OC(F)(F)F)n1 | 12.5
10 | Cc1ccc(N2CC(C(=O)OCC(=O)NNC(=O)c3ccccc3)CC2=O)cc1 (centres unmarked) | 6.36
11 | O=c1c2cc(NC(=S)NCc3cccnc3)ccc2nc2n1CCCCC2 | 4.21
12 | COc1ccc(NC(=O)CC2Nc3ccccc3NC2=O)c([N+](=O)[O-])c1 (centres unmarked) | 0.151
13 | O=c1[nH]c(/C=C/c2ccc(Cl)cc2Cl)c([N+](=O)[O-])c(=O)[nH]1 | 13.9
14 | CCCCN(C(=O)CSCC(=O)Nc1cccc(C)c1)c1c(N)n(Cc2ccccc2)c(=O)[nH]c1=O | 3.45
15 | Cn1ccc(C(=O)N/N=C/c2cccnc2)n1 | 19.3
16 | Cc1ccc(-c2nn3c(-c4ccco4)nnc3c3ccccc23)cc1S(=O)(=O)NCC1CCCO1 (centres unmarked) | -0.48
17 | CCCN(CC(=O)Nc1ccccc1C)C(=O)/C=C/c1cccs1 | 4.09
18 | CCOc1ncccc1C(=O)OCC(=O)c1ccc[nH]1 | 9.14
19 | COc1ccc(NC(=S)N/N=C2/CCCc3c(C)cc(C)cc32)cc1 | 8.01

Row | Structure (SMILES) | hERG current change (%, negative = inhibition) at 1uM [%]
20 | CCCCOc1ccc(N(CC(=O)NC2CCCCC2)C(=O)CCC(=O)Nc2ccccn2)cc1 | 15.5
21 | COc1ccc2[nH]c3c(=O)n(N)c(=O)[nH]c3c2c1 | 4.36
22 | COCCOC(=O)c1c(C)oc2ccc(NS(=O)(=O)c3ccc(C(=O)O)cc3)cc12 | 13.5
23 | COc1cccc(OCC(O)CNC(=O)c2oc3c(C)c(C)ccc3c2C)c1 (centres unmarked) | 3.01
24 | Cc1cccc(N(CC(=O)N/N=C/c2ccccc2C(=O)O)S(C)(=O)=O)c1C | -5.58
25 | CCC(C)NC(=O)CSc1nc2ccccc2c(=O)n1CCCC(=O)NCC1CCCO1 (centres unmarked) | 7.49
26 | COc1ccc(N(CC(=O)Nc2cccc(C)c2C)S(=O)(=O)c2c(C)n[nH]c2C)cc1 | 7.73
27 | COC1CCN(C(=O)c2ccc3oc(Cc4ccc(Cl)cc4)nc3c2)CC1 | 9.79
28 | CCC(Sc1nc(N)c(NC(=O)c2ccc(OC)cc2)c(=O)[nH]1)C(=O)O (centres unmarked) | 2.21
29 | C=CCSc1nnc(NC(=O)COc2ccc3ccccc3c2)s1 | 13.8
30 | CCn1nc(C(=O)NCC(c2cccs2)N2CCOCC2)c2ccccc2c1=O (centres unmarked) | 8.33
31 | COc1ccc(CN2CCCC(C(=O)c3cccc(Cl)c3)C2)cc1 (centres unmarked) | -7.39
32 | COc1ccc2c(Cl)c(C(=O)N/N=C/c3ccc4c(c3)OCO4)sc2c1 | 20.5
33 | Cc1cc(C)c(C#N)c(N2CCCC(C(N)=O)C2)n1 (centres unmarked) | 5.32
34 | Cc1ccc(NS(=O)(=O)c2ccc(CCC(=O)NCc3cccnc3)cc2)cc1 | 16.8
35 | COc1ccc(/C=C2/SC(=O)N(NS(=O)(=O)c3ccccc3)C2=S)cc1OC | 7.58
36 | Oc1ccccc1OCC(O)c1ccccc1 (centres unmarked) | 15.1
37 | N#Cc1ccc(C(=O)NC23CC4CC(CC(C4)C2)C3)cc1 | 11.3
38 | COC(=O)C1=C(CSc2nncn2C)NC(=O)NC1c1ccc(F)cc1 (centres unmarked) | 10.2

Row | Structure (SMILES) | hERG current change (%, negative = inhibition) at 1uM [%]
39 | CCN(CC)CCCn1c2c(c(SCC(=O)Nc3ccc(C)c(F)c3)nc1=O)CCC2 | -27.2
40 | CCOc1ccc(Br)cc1C(=O)N/N=C/c1cccnc1 | 10.8
41 | CN1C(=O)C(=C2CCCCCC2)SC1=S | 9.27
42 | CCc1nc(N[C@@H](CC(C)C)C(=O)O)c2oc3ccccc3c2n1 | -9.97
43 | Cc1nc2c(C)cccc2cc1C(=O)N/N=C/c1ccc(O)cc1 | 10.9
44 | C/C(=N\NC(=O)COc1ccc2ccccc2c1)c1cccs1 | -1.43
45 | O=C(NCc1ccco1)c1ccc(=O)oc1 | 7.41
46 | CC(=O)N1CC(=O)Nc2ccc(Cl)cc2C1c1ccc(F)cc1 (centres unmarked) | -5.48
47 | Cc1ccccc1OCC(=O)Nc1ccccc1-c1ccccc1NC(=O)COc1ccccc1C | 8.66
48 | O=C(Nc1ccccc1Cl)C1CCN(Cc2cnn(-c3ccccc3)c2-n2cccc2)CC1 | -1.54
49 | CC(=O)NCCN1C(=O)C2C3c4ccccc4C(c4ccccc43)C2C1=O (centres unmarked) | 10.3
50 | COc1ccc(C(=O)NNc2ccccc2)cc1OC | 4.53
51 | Cc1cc(C)cc(C(=O)NCC(=O)OCC(=O)c2c(N)n(C)c(=O)n(C)c2=O)c1 | 39.2
52 | CSc1n[nH]c(/N=C/c2oc(O)c3ccccc23)n1 | 13.8
53 | COc1ccccc1C1SCCN1C(=O)c1ccc([N+](=O)[O-])cc1 (centres unmarked) | -4.91
54 | CC(Oc1ccccc1)C(=O)N1CCN=C1SCc1ccc(F)cc1 (centres unmarked) | 2.43
55 | COc1ccc(C(=O)N2CCC(C(=O)Nc3ccccc3C)CC2)cc1OC | 7.03
56 | O=C(CSc1nnc(Cc2ccsc2)o1)c1ccccc1 | 6.74
